In PubChem BioAssay (NCI):
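Where inhibition never reached the appropriate level, the endpoint shown equals the highest concentration tested. Otherwise, values were interpolated linearly from a five-concentration, 48-hour dose response in 96-well plates. At the GI50, growth is halved. TGI marks complete inhibition of growth.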

Test system: NCI-H322M lung
Assay: NCI tumour cell line growth inhibition, 48 h

## O=C1Nc2ccc(Cl)cc2/C1=C/c1cccc(OCc2ccccc2)c1
  GI50: 20000 nM
  TGI: > 100000 nM

## CC1=C(CCC=NNC(N)=O)C2=C(C)C3(CC3)[C@@](C)(O)C(=O)C2=C1
  GI50: 76.6 nM
  TGI: 504 nM

## CN1CCN(Cc2ccc(C(=O)Nc3cccc(C#Cc4cccc5[nH]nc(N)c45)c3)cc2C(F)(F)F)CC1
  GI50: 940 nM
  TGI: 2160 nM

## Cc1ccc(-c2nc(C#N)c(S(=O)(=O)N3CCN(S(C)(=O)=O)CC3)o2)cc1
  GI50: > 100000 nM
  TGI: > 100000 nM
